From article PMC4336329 (PLoS ONE, 2015) come the findings set out here.

The whole screen tested about 310,000 compounds, of which about 2,200 (0.71%) showed an effect of 50% or more. The effect is printed as a negative number. Some of the results follow.

For the test, the target named is human ether-à-go-go-related gene (hERG) potassium channel (human, UniProt Q12809). The test is described as follows: primary screen, population patch clamp on CHO cells stably expressing hERG.
human ether-à-go-go-related gene (hERG) potassium channel, sequence (Q12809 whole entry, looked up): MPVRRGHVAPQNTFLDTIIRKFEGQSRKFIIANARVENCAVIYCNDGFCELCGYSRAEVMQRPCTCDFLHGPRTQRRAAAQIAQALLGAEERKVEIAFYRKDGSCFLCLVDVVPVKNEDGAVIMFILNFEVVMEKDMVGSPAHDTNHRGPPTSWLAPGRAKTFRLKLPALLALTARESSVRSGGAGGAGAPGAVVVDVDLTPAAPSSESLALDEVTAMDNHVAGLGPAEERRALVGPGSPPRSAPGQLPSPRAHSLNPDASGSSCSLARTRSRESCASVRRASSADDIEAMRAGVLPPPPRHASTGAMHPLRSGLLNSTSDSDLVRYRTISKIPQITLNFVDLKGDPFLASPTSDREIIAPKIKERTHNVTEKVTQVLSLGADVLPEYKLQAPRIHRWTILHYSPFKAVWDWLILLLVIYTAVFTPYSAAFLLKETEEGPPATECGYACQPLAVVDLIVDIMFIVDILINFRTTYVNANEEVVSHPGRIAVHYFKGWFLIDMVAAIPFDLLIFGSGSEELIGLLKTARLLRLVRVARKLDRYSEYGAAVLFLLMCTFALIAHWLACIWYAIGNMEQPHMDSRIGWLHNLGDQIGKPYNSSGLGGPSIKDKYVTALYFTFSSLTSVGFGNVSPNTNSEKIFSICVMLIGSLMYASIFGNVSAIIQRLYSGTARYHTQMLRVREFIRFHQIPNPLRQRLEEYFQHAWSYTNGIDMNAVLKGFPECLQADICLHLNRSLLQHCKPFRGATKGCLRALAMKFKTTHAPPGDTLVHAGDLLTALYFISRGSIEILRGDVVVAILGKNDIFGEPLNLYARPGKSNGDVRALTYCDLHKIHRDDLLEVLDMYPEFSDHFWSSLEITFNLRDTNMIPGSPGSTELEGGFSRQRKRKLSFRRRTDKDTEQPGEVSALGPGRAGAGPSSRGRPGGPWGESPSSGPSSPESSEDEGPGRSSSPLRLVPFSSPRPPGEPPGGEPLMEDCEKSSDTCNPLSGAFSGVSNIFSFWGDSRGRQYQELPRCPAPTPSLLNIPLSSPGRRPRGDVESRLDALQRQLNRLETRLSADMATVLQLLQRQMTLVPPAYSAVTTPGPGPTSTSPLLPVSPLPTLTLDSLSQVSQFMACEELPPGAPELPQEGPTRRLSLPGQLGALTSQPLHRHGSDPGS
With `Cc1ccsc1C(=O)C1CCCN(Cc2ccc(-n3cccn3)cc2)C1` (stereo not shown), the “hERG current change (%, negative = inhibition) at 1uM” value was -3.18%.

`CC(O)CNCCCOc1ccc(Cl)cc1C(C)(C)C.O=C(O)C(=O)O` (stereo not shown): the “hERG current change (%, negative = inhibition) at 1uM” value came out at 11.6%.

For `Cc1ccccc1NC1=NC(C)(C)N=C(N)N1`, the “hERG current change (%, negative = inhibition) at 1uM” value is on record as 16.8%.

In the case of `CCOc1ccc(CCNC(=O)c2nnn(CC(=O)Nc3ccc(OC)c(OC)c3)c2N)cc1OCC`, the “hERG current change (%, negative = inhibition) at 1uM” value amounted to 14.5%.

For the compound `Nc1c(C(=O)NCCN2CCOCC2)c2nc3ccccc3nc2n1Cc1ccco1`, the “hERG current change (%, negative = inhibition) at 1uM” value is -42.6%.

In the case of `Cc1cc(Nc2c(C)n(C)n(-c3ccccc3)c2=O)n2c(nc3ccccc32)c1C#N`, the “hERG current change (%, negative = inhibition) at 1uM” value is given as -9.52%.

In the case of `CCC(C(=O)NC1CCN(C)CC1)c1ccccc1` (stereo not shown), the “hERG current change (%, negative = inhibition) at 1uM” value is reported as 17%.

In the case of `Cc1cccn2c(CNC3CCCc4ccccc43)c(C(=O)N3CCOCC3)nc12` (stereo not shown), the “hERG current change (%, negative = inhibition) at 1uM” value is given as 10.7%.

As to `Cc1ccc(-c2nnc(CSc3nnc(C)s3)o2)cc1`, the “hERG current change (%, negative = inhibition) at 1uM” value was -0.13%.

Consider `Cc1ccc2[nH]c(C(=O)N3CCN(C=O)CC3)cc2c1`, for which the “hERG current change (%, negative = inhibition) at 1uM” value was 13.1%.

As for `Cc1ccc(C)c(N(Cc2ccccc2F)S(C)(=O)=O)c1`, the “hERG current change (%, negative = inhibition) at 1uM” value is -0.496%.

For the compound `O=C(O)C(=O)O.O=S(=O)(c1cccc(C(F)(F)F)c1)N(CCCN1CCOCC1)Cc1cccs1`, the “hERG current change (%, negative = inhibition) at 1uM” value is -16.5%.

For the compound `CCCCCCn1c(N2CCN(c3ccccc3)CC2)nc2c1c(=O)n(C)c(=O)n2C`, the “hERG current change (%, negative = inhibition) at 1uM” value was -8.66%.

For `CCN(C(=O)COC(=O)/C=C/c1cccc([N+](=O)[O-])c1)c1ccccc1`, the “hERG current change (%, negative = inhibition) at 1uM” value was found to be 8.36%.

With `CCOc1ccc(C(=O)N(C)C2CCS(=O)(=O)C2)cc1` (stereo not shown), the “hERG current change (%, negative = inhibition) at 1uM” value is given as 21.6%.

With `CSc1ccc(CN2CCC(Cc3ccccc3)CC2)cc1`, the “hERG current change (%, negative = inhibition) at 1uM” value was -29.6%.

Consider `C=C(C)C1(O)OC(=O)C=C1OC` (stereo not shown), for which the “hERG current change (%, negative = inhibition) at 1uM” value came out at 5.4%.

`O=C(CSc1nnc(-c2ccccc2O)o1)NC1CCCCC1`: the “hERG current change (%, negative = inhibition) at 1uM” value came out at 10.2%.

In the case of `CN(N)C(=S)Nc1ccc(F)cc1`, the “hERG current change (%, negative = inhibition) at 1uM” value is 10.7%.

For the compound `Cc1ccnc(-n2c(C)cc(/C=N/NC(=O)COc3cccc4cccnc34)c2C)c1`, the “hERG current change (%, negative = inhibition) at 1uM” value came to 10.9%.

`Cc1cc(C(=O)OCC(=O)N2CCN(c3ccccc3)CC2)c2ccccc2n1`: the “hERG current change (%, negative = inhibition) at 1uM” value stood at 13%.

On to `COc1ccccc1Oc1ccc2c(c1)C(=O)N(CC(=O)O)C2=O`, for which the “hERG current change (%, negative = inhibition) at 1uM” value is listed as 12%.

Regarding `O=C(CCC(=O)N1CCOCC1)c1ccc(F)cc1`, the “hERG current change (%, negative = inhibition) at 1uM” value was 21%.

On to `CC(=O)c1ccc(OCc2cc(C(=O)N3CCC[C@H]3CO)no2)cc1`, for which the “hERG current change (%, negative = inhibition) at 1uM” value was 10.5%.

For the compound `CCCCn1nc2cc(C(=O)N[C@H](C)C3CCCCC3)ccc2c1OCC`, the “hERG current change (%, negative = inhibition) at 1uM” value is reported as 15.9%.
